Data: article PMC12040169 (PLOS Biology, 2025)
The other results are listed elsewhere or left out.

Each molecule was assayed on T1, C. trachomatis L2/434/Bu expressing GFP (CTL2-GFP). Settings: total inclusion area; 28.5 h, 10 µM; inhibitor.
T1 construct: L2/434/Bu GFP intracellular growth in HeLa cells
Design: species or system HeLa; C. trachomatis total inclusion area by high-content imaging, normalised to DMSO
Summary of the method: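 Imaging read-out: GFP inclusions and Hoechst nuclei captured by high-content imaging after fixation. Inclusion area/number = chlamydial growth; nuclei count = host cell viability. MIC calculated per earlier method.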

| SMILES | % of control remaining |
| --- | --- |
| CCN1CCN(c2ncnc3c2cnn3-c2cccc(C)c2)CC1 [CBK265814] | 115.397 |
| CO[C@@]12CC[C@@H](OCC3CC3)C[C@@H]1N(Cc1c(C)cnn1C)CC2 [CBK307072] | 70.7276 |
| Cc1cc(C(=O)N2CCN(C(=O)c3ccco3)CC2)n[nH]1 [CBK144447] | 80.0007 |
| COc1cccc(CNCc2ccccc2[N+](=O)[O-])c1OC [CBK262198] | 95.4349 |
| Cc1ccccc1-n1nc(C)c(CN2CCC(O)C(C)C2)c1C (centres unmarked) [CBK282739] | 94.2856 |
| COc1ccc(OCC(=O)Nc2cccc(-c3nnc4c5ccccc5c(C)nn34)c2)cc1 [CBK266743] | 74.622 |
| Cc1cc(NS(=O)(=O)c2ccc(NC(=O)c3ccc(Br)cc3)cc2)no1 [CBK265371] | 100.738 |
| Cc1ccc(N(Cc2ccco2)C(=O)c2cccc(S(=O)(=O)N3CCOCC3)c2)cc1 [CBK265857] | 73.0467 |
| N#Cc1ccccc1C(=O)N(CCO)Cc1ccccc1 [CBK304844] | 110.637 |
| Cc1nn(CCC(=O)NC(C)Cc2ccccn2)c(C)c1Cl (centres unmarked) [CBK281419] | 87.5051 |
| Cn1c2c(ccc1=O)CCCCC2 [CBK005987] | 36.5421 |
| CC(C)OC(=O)N1CCC(C(=O)NC(c2ccccc2)c2ccc3ccccc3n2)CC1 (centres unmarked) [CBK059642] | 123.349 |
| Cc1cccc(CNc2nccnc2-c2ccncc2)c1 [CBK037453] | 92.499 |
| CNC(=O)C1(Cc2ccccc2-c2ccccc2)CCN(C(=O)Cc2ccc(C)cc2)CC1 [CBK286274] | 111.675 |
| O=C(O)C1Cc2ccccc2CN1C(=O)c1ccccc1 (centres unmarked) [CBK286628] | 114.248 |
| CNCCc1nc(-c2ccc(F)cc2)c2cnccn12 [CBK035927] | 90.5588 |
| CCc1cc2cc3c(cc2nc1SCC(=O)Nc1nc(C)c(C)s1)OCO3 [CBK108548] | 103.775 |
| CC(=O)Nc1ccc(S(=O)(=O)NCc2ccc3[nH]c4c(c3c2)CCCC4)cc1 [CBK267122] | 125.232 |
| Clc1cncc(OCCCCOc2ccccc2)n1 [CBK176018] | 61.1961 |
| NC(=O)c1c(NC(=O)c2nc3ccccc3s2)sc2c1CCCCC2 [CBK287566] | 101.099 |
| FC(F)(F)c1ccc(N2CCNCC2)nc1OCCOc1ccc2ccccc2c1 [CBK200002A] | 49.4534 |
| Cc1cc(O)n2nc(CC(=O)NCc3nnc4n3CCCCC4)nc2n1 [CBK306989] | 55.5128 |
| CS(=O)(=O)N1CCCC(C(=O)Nc2cccc3cccnc23)C1 (centres unmarked) [CBK299783] | 57.8123 |
| CC1CCCCC12NC(=O)N(Cc1csc(-c3cccs3)n1)C2=O (centres unmarked) [CBK305829] | 85.8167 |
| CCCC/C=C/c1cnc(N2CCOCC2)c2nccn12 [CBK091256] | 68.5277 |
| CCCCOC(=O)c1ccc(N2C(=O)CC(N3CCN(c4ccc(F)cc4)CC3)C2=O)cc1 (centres unmarked) [CBK265527] | 96.9872 |
| COC1(CNC(=O)c2cc3ccccc3[nH]2)CCSC1 (centres unmarked) [CBK304605] | 53.8923 |

| SMILES | % of control remaining |
| --- | --- |
| O=C(CSc1nnc2c(n1)[nH]c1ccccc12)Nc1ccccc1[N+](=O)[O-] [CBK263195] | 64.2602 |
| COc1ccc(-c2cn(C[C@H]3CC4CCN3C[C@@H]4C(=O)NC3CCCCC3)nn2)cc1 (some centres unmarked) [CBK289084] | 105.068 |
| Cc1cc(CNC(=S)Nc2ccc(S(N)(=O)=O)cc2)nn1C [CBK267077] | 74.2981 |
| Cc1csc2c(C3CCCN(C(=O)C4CC4)C3)nc(C)n12 (centres unmarked) [CBK285212] | 60.6544 |
| CC(C(=O)Nc1ccc(S(N)(=O)=O)cc1)N(C)Cc1cccs1 (centres unmarked) [CBK305945] | 55.8771 |
| Oc1ccc(/C=N/Nc2nnc(-c3ccccc3)c(-c3ccccc3)n2)cc1 [CBK262011] | 105.95 |
| CCOC(=O)C1CCN(S(=O)(=O)c2ccc(C(C)C)cc2)CC1 [CBK200044] | 73.6459 |
| O=C(CN1CCC(c2ccc(F)cc2)CC1)NCc1ccco1 [CBK283641] | 92.257 |
| CN1CC(=O)N(c2ccc(Cl)cc2Cl)C1=O [CBK116319] | 96.9945 |
| Cc1cc(Cl)c(S(=O)(=O)N2CCN(c3ccccn3)CC2)cc1OCC(N)=O [CBK266553] | 86.356 |
| CN1C(=O)c2cccc3c(S(=O)(=O)Nc4ccc(C(=O)O)c(O)c4)ccc1c23 [CBK299799] | 135.693 |
| Cc1occc1C(=O)Nc1cnn(CCCC(=O)O)c1 [CBK270116] | 77.9399 |
| Cc1oc(NC(=O)CN2CCN(c3ccccc3Cl)CC2)c(C#N)c1C [CBK305908] | 57.7243 |
| Cn1cc(CNCCCN2CCc3ccccc32)c(-c2cccnc2)n1 [CBK306316] | 43.4608 |
| Cc1csc(CNCc2c(C(C)C)nn(C)c2N(C)C)n1 [CBK305089] | 78.8762 |
| O=C(NCc1ccc2c(c1)OCO2)c1cnc2sccn2c1=O [CBK287446] | 77.5904 |
| C#CCN1N=C(c2ccc(OC)cc2)Cn2c(cc3sccc32)C1=O [CBK284209] | 55.5846 |
| CC(Oc1ccccc1)C(=O)Nc1ccc(-c2csc(-c3ccccc3)n2)cc1 (centres unmarked) [CBK268855] | 88.3836 |
| CCOC(=O)Cn1c(-c2ccc(OC)cc2)cc2cccnc21 [CBK283320] | 108.531 |
| CCOC(=O)c1cccnc1-c1cc2ccccc2o1 [CBK149237] | 122.484 |
| Cc1ccc(S(=O)(=O)N2/C(=C\COc3ccc(Cl)cc3Cl)C(N3CCOCC3)c3ccccc32)cc1 (centres unmarked) [CBK262740] | 99.5101 |
| COc1cccc(OCCN2CCC3(C2)NCCc2c3[nH]c3cc(OC)ccc23)c1 (centres unmarked) [CBK061794] | 88.9028 |
| O=C(NC(c1ccccn1)c1cccs1)C1CCN(S(=O)(=O)c2ccc(C(F)(F)F)cc2)CC1 (centres unmarked) [CBK060153] | 111.109 |
| c1cncc(COc2ccnc(N3CCCN(CCN4CCOCC4)CC3)n2)c1 [CBK084122] | 82.9598 |
| CC(=O)c1ccc(NC(=O)N2Cc3nc[nH]c3C[C@H]2c2nc(-c3ccc(C)cc3)no2)cc1 [CBK288959] | 75.2272 |
| CN(Cc1cccnc1)C(=O)CSC(c1ccccc1)c1ccccc1 [CBK298284] | 110.732 |
| O=C1Cc2ccccc2C2(CCN(C(=O)NCc3cccc(F)c3)CC2)N1 [CBK047288] | 96.6517 |

| SMILES | % of control remaining |
| --- | --- |
| Cc1nc(C(=O)N2CCn3nc(C(O)c4ccccc4)cc3C2)c(C)s1 (centres unmarked) [CBK307474] | 58.3475 |
| O=C(NCCCc1ccccn1)c1cc(C2CCCCC2)no1 [CBK283296] | 92.4652 |
| CCOC(=O)C(NC(=O)CCn1ccc2ccncc21)C(C)C (centres unmarked) [CBK284719] | 103.278 |
| COc1ccc(S(=O)(=O)Nc2ccc3oc(-c4ccccc4F)cc(=O)c3c2)cc1 [CBK300518] | 78.7418 |
| CCC(c1cccnc1)N(C)C(=O)c1ccc(=O)n(C)c1 (centres unmarked) [CBK306802] | 122.283 |
| O=C(CC1c2ccccc2Oc2ccccc21)N1CCc2nc3ccccc3c(=O)n2CC1 [CBK286314] | 112.897 |
| C=CCn1c(Cc2csc(NC(=O)CCc3nc4ccccc4c(=O)[nH]3)n2)n[nH]c1=S [CBK297888] | 76.897 |
| COc1ccc(F)cc1S(=O)(=O)Nc1cccc(C)n1 [CBK268842] | 98.8212 |
| O=C(c1ccccn1)N1CCCC(n2cnc3cc(F)ccc32)C1 (centres unmarked) [CBK284476] | 94.8829 |
| O=C1CCCN1CCOc1nccnc1/C=C/c1ccccc1 [CBK106875] | 94.2884 |
| CSc1oc(-c2ccccc2)nc1C(N)=O [CBK067744] | 127.781 |
| COC(=O)c1ccc(NC(=S)N2CCC(C(N)=O)CC2)cc1 [CBK267232] | 90.3618 |
| O=C(O)c1snnc1-c1ccccc1 [CBK021545] | 113.991 |
| Cc1ccc2[nH]c3c(c2c1)CCNC31CCN(C(=O)CC(C)CC(=O)O)CC1 (centres unmarked) [CBK047196] | 91.7794 |
| Cc1cnc(COC(=O)N2C[C@@H](C)O[C@@H](C)C2)cn1 [CBK200124] | 104.181 |
| CCCCc1ccc(S(=O)(=O)Nc2nccnc2-c2cccs2)cc1 [CBK050770] | 104.361 |
| O=S(=O)(Nc1cccc2cc[nH]c12)c1ccc(Br)cc1C(F)(F)F [CBK159519] | 58.585 |
| COc1cc(C(C)NC(=O)c2ccc(=O)[nH]n2)ccc1OC1CCCC1 (centres unmarked) [CBK298335] | 122.759 |
| CC(=O)N1CCc2cc(NC(=O)C3CC4C=CC3C43CC3)ccc21 (centres unmarked) [CBK281472] | 63.5474 |
| CCOC(=O)C(C(=O)OCC)(N1CCOCC1)N1CCOCC1 [CBK261176] | 105.965 |
| CC1CC1C(=O)N1CCC(c2nc3ccccc3cc2N)CC1 (centres unmarked) [CBK285090] | 83.9043 |
| O=C(Nc1cccc(C(F)(F)F)c1)N1CCC(n2c(=O)[nH]c3ccccc32)CC1 [CBK149845] | 79.8528 |
| COc1cc(CNC(=O)c2cncc(-c3ccc(C(=O)N4CCOCC4)cc3)c2)cc(OC)c1OC [CBK158632] | 90.9486 |
| O=C(Oc1ccc(/C=N/c2ccc(O)c(-c3nc4ccccc4s3)c2)cc1)c1ccccc1Cl [CBK261241] | 111.482 |
| COc1cc(/C=C(/C#N)c2ccc(C(=O)O)cc2)cc(Br)c1OCC(=O)O [CBK268956] | 118.389 |
| Cc1cccc(/C(C#N)=C\c2cn(CC(=O)O)c3ccccc23)c1 [CBK269457] | 66.134 |
